# Article PMC4336329 (PLoS ONE, 2015)
# The whole screen tested about 310,000 compounds, of which about 2,200 (0.71%) showed an effect of 50% or more. Effects have a minus sign here. The list shows a part of the results.
# Biological target: human ether-à-go-go-related gene (hERG) potassium channel (human, UniProt Q12809)
# Assay: primary screen, population patch clamp on CHO cells stably expressing hERG
# Chain of human ether-à-go-go-related gene (hERG) potassium channel (Q12809 whole entry, looked up): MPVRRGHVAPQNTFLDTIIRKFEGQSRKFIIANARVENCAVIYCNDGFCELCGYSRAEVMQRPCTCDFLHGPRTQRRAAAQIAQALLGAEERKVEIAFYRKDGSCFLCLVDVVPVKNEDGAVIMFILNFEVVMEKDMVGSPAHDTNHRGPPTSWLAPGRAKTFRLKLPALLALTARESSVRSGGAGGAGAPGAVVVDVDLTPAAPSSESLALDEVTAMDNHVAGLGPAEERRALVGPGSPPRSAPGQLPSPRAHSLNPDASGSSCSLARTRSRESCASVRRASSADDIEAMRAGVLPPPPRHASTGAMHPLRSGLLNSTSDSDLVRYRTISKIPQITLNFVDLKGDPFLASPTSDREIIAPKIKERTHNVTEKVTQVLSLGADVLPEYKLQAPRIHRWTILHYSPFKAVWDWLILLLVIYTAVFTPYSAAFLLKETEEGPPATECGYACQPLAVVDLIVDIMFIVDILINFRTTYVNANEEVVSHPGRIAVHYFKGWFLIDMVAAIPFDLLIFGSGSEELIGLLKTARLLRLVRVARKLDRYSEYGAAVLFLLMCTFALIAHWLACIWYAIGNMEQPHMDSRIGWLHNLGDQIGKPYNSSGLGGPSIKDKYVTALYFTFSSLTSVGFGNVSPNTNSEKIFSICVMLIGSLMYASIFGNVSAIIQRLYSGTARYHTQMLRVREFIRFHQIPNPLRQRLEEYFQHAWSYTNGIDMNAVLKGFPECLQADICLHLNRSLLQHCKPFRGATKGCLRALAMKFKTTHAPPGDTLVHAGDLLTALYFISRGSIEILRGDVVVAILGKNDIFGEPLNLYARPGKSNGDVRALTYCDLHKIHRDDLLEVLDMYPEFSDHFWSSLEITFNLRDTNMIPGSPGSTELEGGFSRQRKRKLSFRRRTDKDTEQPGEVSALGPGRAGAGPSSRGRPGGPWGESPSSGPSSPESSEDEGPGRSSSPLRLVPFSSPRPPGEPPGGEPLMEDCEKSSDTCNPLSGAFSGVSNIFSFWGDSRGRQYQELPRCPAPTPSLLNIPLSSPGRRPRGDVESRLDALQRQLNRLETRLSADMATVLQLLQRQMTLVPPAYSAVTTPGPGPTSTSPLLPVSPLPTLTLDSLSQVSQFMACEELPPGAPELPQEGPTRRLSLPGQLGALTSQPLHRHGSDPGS
row,Structure (SMILES),"hERG current change (%, negative = inhibition) at 1uM [%]"
1,O=C(Nc1ccccc1N1CCCC1)c1ccc(N2CCCC2=O)cc1,-0.757
2,CCOC(=O)c1cnc2c(cnn2C)c1NCCC(O)C(F)(F)F (stereo not drawn),3.08
3,O=C(NCc1ccccc1)C1CCCN(S(=O)(=O)c2ccc(-n3cnnn3)cc2)C1 (stereo not drawn),4.37
4,CCCc1cc(=O)[nH]c(SCC(=O)N(Cc2ccccc2)C(C)C)n1,9.69
5,Cc1ccc(O)c(CC(C)C)n1,10.5
6,COCCCNC(=O)c1ccc(CS(=O)(=O)c2ccccc2C)o1,13.8
7,CC1CCN(S(=O)(=O)c2ccc(C(=O)N3CCOCC3)cc2)CC1,14.7
8,C=CCn1c(O)c(C(CC)=Nc2cccc(C(=O)O)c2)c(=O)[nH]c1=O,12.6
9,Cc1cccc(NS(=O)(=O)c2ccc(C(=O)NCCCN3CCOCC3)cc2)c1C,4.17
10,CCN1C(=O)CS/C1=N\c1nccs1,10.7
11,C/C(N)=C(/C#N)C(=O)COC(=O)c1cc2c(s1)CCC(C)C2 (stereo not drawn),8.65
12,O=C(/C=C1\SC(=O)N(CC(=O)Nc2ccc(F)cc2)C1=O)Nc1ccc(Cl)cc1,11
13,O=C(CCc1ccccc1)NNC(=S)NC(=O)c1ccc(Cl)cc1,4.96
14,CCCc1ccc(S(=O)(=O)N2CCN(Cc3ccco3)CC2)cc1,13.7
15,CCOCCCNC(=O)CS(=O)(=O)Cc1nc(-c2cccc(OC)c2)oc1C,2.81
16,CN(C)C(=O)NC1CCCCCCCCCCC1,-0.468
17,COc1ccccc1OCCSc1nc(C)c(Cc2ccccc2)c(=O)[nH]1,13.6
18,Cc1ccc(-c2csc3ncnc(-n4cnc5ccccc54)c23)cc1,2.25
19,CC1(C)Cc2c(sc(/N=C/N3CCCC3)c2C#N)C(C)(C)N1,-4.13
20,CCOC(=O)C1C(C(=O)OCC)C1(c1ccccc1)c1ccccc1 (stereo not drawn),1.05
21,Cc1cc(C)n2nc(C(=O)OCC(=O)N(C)C3CCCCC3)nc2n1,16.5
22,CCN(CC)S(=O)(=O)c1cc(NC(=O)C2=COCCO2)ccc1Cl,8.54
23,O=C(O)CCN(Cc1ccccc1)S(=O)(=O)c1ccc(Cl)cc1F,3.17

row,Structure (SMILES),"hERG current change (%, negative = inhibition) at 1uM [%]"
1,COc1ccc(OC)c(NC(=O)C23CC4CC(C2)CC(n2cnc(Br)n2)(C4)C3)c1,-11
2,Cc1cccc(NC(=S)N/N=C2/CCCCc3ccccc32)c1,17
3,Cc1ccc(C)c(NC(=S)NNC(=O)c2csc(C(C)C)c2)c1,0.742
4,CC(C)(C)c1ccc(S(=O)(=O)NCc2ccc(C(=O)N3CCOCC3)cc2)cc1,4.31
5,CNC(=O)c1[nH]cnc1C(=O)Nc1cccc(OC)c1,10.2
6,c1ccc(CNc2ncnc3nc[nH]c23)cc1,2.05
7,COc1ccc(C(=O)Nc2ccnc(-c3cccnc3)n2)cc1,6.62
8,O=c1cc(-c2c(F)c(F)c(F)c(F)c2F)oc2ccccc12,15.7
9,O=C(O)C=C(Br)Br,7.58
10,O=C1CN(C(=O)c2cccc([N+](=O)[O-])c2)CC(=O)N1,12
11,Cn1c(NC(=O)/C=C/c2ccccc2)cc(=O)n(C)c1=O,2
12,Cc1ccc(S(=O)(=O)N2CCOCC2)cc1C(=O)N1CCCCCC1,0.103
13,Cc1cc(=O)oc2cc3c(cc12)OCO3,11.8
14,COc1ccccc1N1CC(C(=O)Nc2ccc(N3CCOCC3)cc2)CC1=O (stereo not drawn),12.1
15,Nc1nc(N)nc(-c2cccc(Cl)c2)n1,8.43
16,CCCCn1c(N)c(N(CCOC)C(=O)CC(NC(=O)c2ccccc2)c2ccccc2)c(=O)[nH]c1=O (stereo not drawn),0.82
17,COc1cc2c(cc1OC)C(C)N(C(=O)c1cccs1)CC2 (stereo not drawn),3.9
18,Cc1ccc(S(=O)(=O)N2CCN(C(=O)CSc3nnc(C)s3)C2)cc1,8.98
19,Nc1nnnn1/N=C/c1ccc(Br)cc1,16.7
20,O=C(CSc1nnc(CNc2ccc(Cl)cc2)n1Cc1ccccc1)NCc1ccco1,-1.71
21,CN1CCN(C(=O)c2ccc(COc3cc(Cl)ccc3Cl)o2)CC1,-6.31
22,COc1ccc(C2Nc3ccccc3C(=O)N2c2ccccc2)cc1Cn1cc([N+](=O)[O-])cn1 (stereo not drawn),-11.7
